# Results published in the supplement of paper PMC11417369.
# Some of the results follow.
# System: PfAP2-HC AP2 domain (GST-tagged)
# Experiment: gcPBM binding intensity (ln(normalized median fluorescence intensity)); higher = stronger DNA binding
# Summary of the method: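 Probes on an Agilent 4 × 180k array were primer-extended, double-stranded and 36 bp long, taken from intergenic genomic regions, with negative controls added. GST-tagged P. falciparum DNA-binding domains from E. coli, about 25 μg on average, were applied to the array for 1 h in 1× PBS containing 1% milk, 0.2 mg/ml BSA, 0.5% salmon testes DNA and 0.03% Triton X-100. Binding intensity, obtained after Alexa488 anti-GST antibody detection and a 488 nm scan, is the highest Masliner-normalised natural-log median intensity across replicate spots of either probe orientation.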
row,Sequence,gcPBM binding intensity (ln)
1,ATTCGATGTTTTAAATGTACACAAATTGAAGGAATA [XGTACX_site409],9.7
2,GTATATAATTTTTTTTTTTTTTTCATTCTTTTCCTT [CACACA_negctrl_site1780],9.46
3,ATGAATTGACCATATTGTACATATTTAGGACTTACC [XGTACX_site8072],9.55
4,AAATATATGAAATATACACACTTCTTTGGTATTATT [CACACA_site4414],9.81
5,TTTATATAATTTTAATGTACATATATATATATAAAT [XGTACX_site4381],9.52
6,TTTTCTTACATGAGTGTACACACTTTTTTTCAGAAA [CACACA_site70],9.71
7,TTCTTCACATACACTTCAAAATTTGATAAAACATTA [CACACA_negctrl_site472],9.67
8,TAATAAATAAGATTCACACATATTTAAATGTTATGC [CACACA_site5275],9.54
9,TATCTATAATATTATACACACATATATGCATAATAT [CACACA_site6175],9.98
10,TTATTTGAATAATGTTTGCACTTAGAGTATTTTATA,9.57
11,ATATATCATAAATAAATGAAAATATTTTCTATGTGT [CACACA_negctrl_site689],9.66
12,AATCAAAATAATTTAACACACAATTTTAATACTGTT [CACACA_site2375],9.75
13,AAATTCCATGAAAAAAGTACTAATTAATACAATATA [XGTACX_site2877],9.69
14,TTTAAGAATTAACGGGGTACAATTCTTAAATATATA [XGTACX_site669],9.31
15,TAGAAGTACATATATGCATGTTAATTTTAAAGGAGG [TGCATGCA_site538],9.75
16,ATATATATATAGTGTTGTACATTTAAAAATAATATA [XGTACX_site2627],9.71
17,ATTAAAAATATTAGTTGTACTTTATATTTTCATATA [XGTACX_site3614],9.57
18,TGTTTTATTTTTTTTGTGCACATACCTTTAGCATCA [GTGCAC_site9812],9.88
19,TAATTATAATAAATATTCATATGTTCAAATATATAT [CACACA_negctrl_site151],9.42
20,ATGTGATAGAAGTACACACACATATGTATTTATAAT [CACACA_site5075],10.1
21,TTTTAAAAACGGCATGCATGTAATACATGGAAGGAA [TGCATGCA_site480],10
22,TATATATAATTCATACATTTTAAATATATTTATTTA [CACACA_negctrl_site840],9.33

row,Sequence,gcPBM binding intensity (ln)
1,TTTGTTGACAGACACACACACATACATATATATATA [CACACA_site2288],10.4
2,TATAATAATATAATGGTGCATGTATATAACCATATA,9.57
3,AAATAAATATAAATAAATAAATAAATAAATATATAT [CACACA_negctrl_site827],9.79
4,TTAATAATTCTTAAAAGTACATAACTTTTTTTTTTT [XGTACX_site751],9.33
5,GCTCTTTTGTTATGGTGTACCCTCCATGTAACATAA [XGTACX_site91],9.63
6,TCTTACGGATTCATTGTGCACATATATATATATATA [GTGCAC_site9896],10.1
7,TTTTTTATTAAAAGTAGTACACATGAAAAAAAAAAA [XGTACX_site5524],9.53
8,ATTTTTATAGAAATATGTACACAATATGTATATATT [XGTACX_site7993],9.71
9,TTAATATAGATATAACCACACACATACATCTAATTC [CACACA_site8519],10.2
10,TTTAAAAAAATTCATGCACACGAAATAAAAAGCACC [CACACA_site8214],9.86
11,TCTTTTATGCACATTGAGTAAACAACATATTTTTAA [TGCATGCA_negctrl_site561],9.61
12,TATTTTATATGATAGGTGCATTTTTTTTTTTTTTTT [GTGCAC_site9757],9.56
13,ATTTTTTCAAAATGGAAAACTTATCAGTGAAAAAAA [CACACA_negctrl_site1087],9.56
14,CTTGACCCCCTTTGTTGTACTGACATTTGTGAGCTT [XGTACX_site591],9.63
15,ATTTTTTTATACAATTTTATATATTAAATATTATAA [GTGCAC_negctrl_site86],9.35
16,TGTATTTTTAACATATGTACGAATAGCACGTGTTAT [XGTACX_site3640],9.59
17,TAAAAATGGGAGGGGTGTACTACACAATAAAATTAT [XGTACX_site5641],9.8
18,TTTGTGTAAAGAATCAGTACATATAATATATATATA [XGTACX_site1972],9.57
19,ATATGTATTGGAGTGTGTACATATATATATATTTAT [XGTACX_site5633],9.96
20,TTAATAATGTTTTATTGTACTTTTTTGTGGGTTTAT [XGTACX_site5670],9.84
21,GTGCTACATCATATGTGTACATATACCAAACTGTAT [XGTACX_site8233],9.81
22,ATATACATTCAAGGCTGTACACTATATTTTTTTTTT [XGTACX_site6514],9.82

row,Sequence,gcPBM binding intensity (ln)
1,AGTATACACGAACACACACACACATATATAAATATA [CACACA_site6913],10.7
2,TAAAGTATTACAACCACACACACACCCATATATTAT [CACACA_site4159],11.1
3,TATAAAATTATTAAACAAGAAAATTTTAGGTAATAC [TGCATGCA_negctrl_site568],9.7
4,ATAATATATTTTTGAACACACAATATATATATATAT [CACACA_site4124],9.66
5,ATATAAATATGACACACACACAAAAAAAATAAAGAC [CACACA_site6208],10.7
6,TATAATATATTTTGATGTACAAATATATTATATATA [XGTACX_site8633],9.54
7,TTGATAAAACGTTATGCACACGTACGTGGGTATTTA [CACACA_site8445],9.85
8,TAATTTAAAAATTCCTGTACTCAGTTTTTTCTATTT [XGTACX_site4961],9.76
9,TAAGTGTATGTATATAAACACACATACATATATATA [CACACA_site8397],9.93
10,AAAAATATGTCCATGAAAAGGATAGGCAGGTAATCA [XGTACX_negctrl_site93],9.8
11,AAATATATTTTACATTGTACATGAATAAACTATAAA [XGTACX_site2080],9.45
12,AAAAATTAAATAAATTTACACACTAATAATTACATA [CACACA_site8260],9.63
13,ACGTTAAAATATTGGGTGCTAACACAATAAAAATAA,9.77
14,TACAATTTTTTAAATGCACACAAAAGGAATAAATAA [CACACA_site8075],9.8
15,TAATATATGTATTGCACACCTATAACCATTATTTCT [CACACA_site1498],9.89
16,AAAAGCAAGTTCCAGGGTACATATATATGAAAAAAC [XGTACX_site2408],9.82
17,CCTAAAAAAAAGAAATGATATACATATGTATATATA [GTGCAC_negctrl_site100],9.6
18,TATTTAAGAATATGAAGTACATATATTATTTAAAAA [XGTACX_site7897],9.44
19,CATATAAATAAATACACACACACACGCCTTATAATT [CACACA_site7830],11.6
20,TATATAGGTATCATTACACACATGTATACTTATTTG [CACACA_site7864],10.1
21,TTTTTCTTTCTCTATTGTACACATGGAAACACATAA [XGTACX_site4601],9.67
22,TCTTGTTTTCAAATATGTACATAGAATAGACATTTT [XGTACX_site684],9.24

row,Sequence,gcPBM binding intensity (ln)
1,AAATATATAAAATATACACACAGTAATATATATATA [CACACA_site1385],9.9
2,AAGTTTTATTTAAATTGTACTAAAATTTTTATATTA [XGTACX_site7065],9.48
3,TATATATAAATATTCAGTACATAGTATTATTAAGTA [XGTACX_site1980],9.73
4,ATAAAATGAACAAACACACACACATATATATATATA [CACACA_site2402],10.9
5,TCTCAAGTTGTTAAAAAATAAAAACAATAAATCTAA [CACACA_negctrl_site165],9.41
6,TACAAAAAAAAAAAATAGATAAAATAATAATCAAAT [TGCATGCA_negctrl_site524],9.61
7,ATATATTGAACATATTGTACATTTTGTTAATATTTT [XGTACX_site7622],9.65
8,TGAATATTCCTATGCACACAAATTAAAATACATAAT [CACACA_site4403],9.88
9,ACAAATTTATACTTAAAACACACGTAATCATTTATA [CACACA_site1636],9.63
10,TAAAATAATTTATGCATACACACATATATATATATA [CACACA_site4021],9.84
11,AACAATTGGAATAACGCATGCATTTATAATATAGAA [TGCATGCA_site298],9.75
12,CAATTTTTTAAATGCACACAAAAGGAATAAATAAAT [CACACA_site544],9.8
13,AAGAAGAAATGCTTTGCATGCAAATTTTATGCCAAC [TGCATGCA_site721],9.71
14,AGACAAAATGTTTGAAGTACTTTTTATCAAATTAAA [XGTACX_site8885],9.51
15,AAAAAAAAAAAACACACACACACACCCATACATACA [CACACA_site707],11.4
16,ATATATATTTATATTTGTACGAATTAAAATTTTTTA [XGTACX_site5200],9.49
17,ATTTAAAACAAAAGTAGTACGTCTAATAAATTCAAC [XGTACX_site4344],9.64
18,TTATCAATAAAATGCACACACTGTAATATTATTAAA [CACACA_site6055],9.78
19,ATAGCTTTTATTTAAAGTACAAAAAGGATGTTGAAA [XGTACX_site3810],9.64
20,TTAATTATTATATAAGTGCAATAATAAAAAGTTGTA [GTGCAC_site9552],9.58
21,TTGTTAATAAATAAATAAATAAATATATTTATATAT [GTGCAC_negctrl_site271],9.33
22,TGATTTTTTCATATTCTACACACGTGAACAAATGTG [CACACA_site8987],9.71
